The campaign covered roughly 150,000 compounds. About 540 (0.36%) showed an effect of 50% or more. The list shows a part of the results.

In the test the test system is Plasmodium falciparum. The experiment in a line: Primary screen in NF54 nanoGlo assay, in single point, at 2uM, 72h; a lower Z score goes with more inhibition. The class given is functional, Erythrocyte. To be noted: timepoint 72 hour.
In general, % Inhibition refers to the drop in the measured response relative to a control, in per cent. Regarding `Cc1nc(N(C)C)nc(N[C@H]2CCN(Cc3ccccn3)C[C@@H]2O)c1C`, the “% Inhibition” value is -2% and the Z score was found to be 0.36.
For `C[C@H]1C[C@@H](CO)CCN1S(=O)(=O)c1ccc2ccccc2c1F` the same measures were 7% and -1.39.
On to `COCCN(CC(=O)N1N=C(c2ccc(OC)cc2)C[C@H]1c1ccc2c(c1)OCO2)C(=O)C(C)C`, for which the “% Inhibition” value came to 7% and the Z score was -0.96.
On to `Cc1ccnc([C@@H](NC(=O)Nc2c(C)ccc3nsnc23)C2CC2)c1`, for which the “% Inhibition” value is reported as -8% and the Z score was 1.46.
Regarding `Cc1nn(C(C)C)c(C)c1NCc1cc(Br)c2c(c1)OCO2`, the “% Inhibition” value is -9% and the Z score stood at 1.8.
For `COC[C@H](C)NC(=O)Nc1ccc(C)c(-c2nc(C)co2)c1` the same measures were 4% and -0.69.
Regarding `Cc1ccc(NC(C)(C)C(=O)NCCc2cccn2C)cc1`, the “% Inhibition” value was -15% and the Z score is on record as 1.4.
For `O=C(NCCc1ccco1)c1nnc(C(=O)Nc2ccc(F)cc2)s1`, the “% Inhibition” value is recorded as -12% and the Z score was 2.03.
Take `CCc1nn(-c2ccc(OC)cc2)c(Oc2ccc(F)cc2F)c1CN(C[C@H]1CCCO1)C(=O)C1CCC1`: the “% Inhibition” value is -11% and the Z score amounted to 1.83.
For `CC(C)c1nc(N2CCc3nc[nH]c(=O)c3C2)cc(C(C)(C)C)n1` the same measures were 2% and -0.24.
For `Cc1ncsc1CN1CCC2(CC1)NCCc1c2[nH]c2ccccc12` the same measures were 11% and -1.43.
Taken in the same sequence, the figures for `Cc1cc(C)n(Cc2cc(-c3ccccc3)no2)n1` were -11% and 2.07.
Regarding `Cc1ccc(C(=O)N2CCC(C3(c4ccccn4)NC(=O)N(CC4CCCO4)C3=O)CC2)c(C)c1` (centres undefined), the “% Inhibition” value is -3% and the Z score is reported as 0.62.
For `CCc1nc(-c2ccc(-c3noc(Cc4cccc(OC)c4)n3)cc2)cs1` the same measures were -10% and 0.98.
As to `O=C(Cc1c(Cl)cccc1Cl)Nc1cccc(C(=O)NC2CC2)c1`, the “% Inhibition” value was determined as 0% and the Z score came out at 0.06.
Taken in the same sequence, the figures for `COCC(=O)N1CCC(C)C(CNC(=O)OC(C)(C)C)C1` (centres undefined) were -1% and 0.11.
For `Cc1nn(CCCNC(=O)c2c(C)ncn2C)c(C)c1C` the same measures were -1% and 0.19.
Take `CN(Cc1cccc2[nH]ccc12)CC1(CO)CCCC1`: the “% Inhibition” value is on record as 21% and the Z score is reported as -2.61.
For `COCCC(=O)N[C@H]1CC(=O)N(C2Cc3ccccc3C2)C1` the same measures were -4% and 0.71.
With `Cc1csc(C(=O)N2CCc3nc(NC(=O)c4cnccn4)sc3C2)c1`, the “% Inhibition” value is -2% and the Z score is 0.33.
In the case of `CC12CC(CN1S(=O)(=O)CCc1ccc(F)cc1)C2`, the “% Inhibition” value was -4% and the Z score is recorded as 0.74.
For `CCC(=O)Nc1nc2ccc(NC(=O)Nc3cccc(Cl)c3)cc2s1` the same measures were -6% and 0.96.
Regarding `CC(=O)N1C[C@H]2CC[C@@H](C1)N(Cc1ccc(F)c(Cl)c1F)C2`, the “% Inhibition” value is -1% and the Z score turned out to be 0.15.
Regarding `CN(Cc1csc(-c2ccccc2)n1)Cc1noc([C@@H]2CCCO2)n1`, the “% Inhibition” value is recorded as -13% and the Z score worked out at 1.42.
Consider `O=C(Nc1ccc2[nH]c(=O)[nH]c2c1)c1cc2c(s1)CCC2`, for which the “% Inhibition” value amounted to 16% and the Z score is reported as -1.86.
Taken in the same sequence, the figures for `CC1(CNC(=O)N2CCCC(CO)C2)CCCc2ccccc21` (centres undefined) were -7% and 0.87.
Taken in the same sequence, the figures for `O=C(NCCN1CCOCC1)C1CC1c1cccc2ccccc12` (centres undefined) were -6% and 0.74.
For the compound `CC1(C)CN(C(=O)c2csc(C(F)(F)F)n2)[C@H]1C1CC1`, the “% Inhibition” value is listed as 1% and the Z score is -0.21.
For the compound `NS(=O)(=O)c1ccc(CNS(=O)(=O)N2CCc3ccccc3C2)cc1`, the “% Inhibition” value is recorded as 4% and the Z score is -0.53.
On to `CCC(=O)N1CCC(c2noc(COc3cccnc3)n2)CC1`, for which the “% Inhibition” value is recorded as -16% and the Z score came to 2.04.
Taken in the same sequence, the figures for `C[C@H](O)CNc1ncc(Br)cc1Cl` were -5% and 0.74.
With `Cc1ccc(C)c(N2CCN(S(=O)(=O)c3cc(-c4cc(C)no4)ccc3C)CC2)c1`, the “% Inhibition” value was -10% and the Z score amounted to 1.33.
Taken in the same sequence, the figures for `Cc1nc(-c2cccs2)sc1C(=O)N1CCC2(CC1)NC(=O)NC2=O` were 18% and -2.27.
With `COc1cc(C)cc(C(=O)N2CCO[C@H](c3nccs3)C2)c1O`, the “% Inhibition” value is -7% and the Z score was 0.97.
`C[C@@H](c1nc(Cc2cccs2)nn1C(C)(C)C)n1cncn1`: the “% Inhibition” value turned out to be 6% and the Z score is on record as -0.9.
With `O=C(NCc1ccccc1F)C1Cc2cc(C(F)(F)F)ccc2N2CCN(c3ccccc3F)CC12` (centres undefined), the “% Inhibition” value was 3% and the Z score was -0.32.
Taken in the same sequence, the figures for `Cc1ccc(S(=O)(=O)N2CC3CN(C(=O)CNC(=O)c4ccccc4)CC(C2)O3)cc1` were -24% and 2.15.
For the compound `FC(F)c1nnc2n1CCN(c1nc(CC3CC3)ns1)C2`, the “% Inhibition” value is -4% and the Z score is on record as 0.61.
For the compound `Cc1c(C(=O)N(Cc2ccccc2)[C@H]2CCS(=O)(=O)C2)oc2ccccc12`, the “% Inhibition” value turned out to be 7% and the Z score is -1.27.
As for `C[C@@H](C(=O)N1Cc2cncnc2C1)c1ccccc1`, the “% Inhibition” value is 2% and the Z score is -0.42.
As for `COc1cccc(CNC(=O)[C@@H]2CCCN2c2nnc(N3CCCCC3=O)s2)c1`, the “% Inhibition” value was -12% and the Z score was determined as 2.2.
Taken in the same sequence, the figures for `Cc1cccc2[nH]c(CNC(=O)N3CCCC(C4CCCCO4)C3)nc12` (centres undefined) were 9% and -1.68.

(Values after ChEMBL document CHEMBL4888484, “Replenishing the malaria drug discovery pipeline: Screening and hit evaluation of the MMV Hit Generation Library 1 (HGL1) against asexual blood stage Plasmodium falciparum ,using a nano luciferase reporter read-out” (2022).)
